We go through 115 sequences from the BET-seq Pho4 binding data (Le et al. 2018).

The list shows a part of the results. These are noisy estimates, calculated here from bound and input reads.

The assay has as its target T1, Pho4 (S. cerevisiae) (UniProt P07270).
T1 sequence: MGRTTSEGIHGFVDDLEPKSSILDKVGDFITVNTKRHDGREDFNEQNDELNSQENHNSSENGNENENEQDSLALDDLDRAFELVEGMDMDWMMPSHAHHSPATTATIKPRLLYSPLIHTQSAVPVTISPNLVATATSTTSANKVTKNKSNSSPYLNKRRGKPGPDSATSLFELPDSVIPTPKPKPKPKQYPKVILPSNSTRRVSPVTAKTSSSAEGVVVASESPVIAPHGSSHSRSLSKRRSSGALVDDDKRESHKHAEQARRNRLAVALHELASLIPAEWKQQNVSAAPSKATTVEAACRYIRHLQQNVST
Put plainly: relative binding free energy (BET-seq); higher = weaker binding. The conditions noted are these: reference: library average.
With TTGTGCACGTGAGTCG, the “relative binding free energy” value was determined as 0.15 kcal/mol.
As for TGTTCCACGTGGTCTT, the “relative binding free energy” value was found to be 0.04 kcal/mol.
As to TGTGCCACGTGTAAGG, the “relative binding free energy” value is -0.01 kcal/mol.
Take TGTCGCACGTGTAGAA: the “relative binding free energy” value came to 0.13 kcal/mol.
For the sequence CGCGGCACGTGGGTTT, the “relative binding free energy” value is -0.21 kcal/mol.
Under TCTTTCACGTGTGCTT stands 0.16 kcal/mol.
As for GGGGGCACGTGTCTGG, the “relative binding free energy” value is -0.11 kcal/mol.
Under AGTATCACGTGCGTGG stands 0.05 kcal/mol; under TTTGACACGTGTGTGC, 0.13 kcal/mol; under TTATGCACGTGAACGT, 0.04 kcal/mol.
Regarding TTATGCACGTGTGTCA, the “relative binding free energy” value is -0.28 kcal/mol.
Next, GGTTACACGTGCGTTG: 0.09 kcal/mol; TAAGACACGTGCGGAT: 0.08 kcal/mol; AGTTACACGTGGGCCG: -0.01 kcal/mol.
On to TTTCTCACGTGGTGTT, for which the “relative binding free energy” value came out at 0.16 kcal/mol.
As to GGCAGCACGTGGATTG, the “relative binding free energy” value was -0.05 kcal/mol.
Take TATGGCACGTGTACGG: the “relative binding free energy” value was -0.07 kcal/mol.
Turning to TGAGCCACGTGGTGCT, the “relative binding free energy” value is -0.1 kcal/mol.
Consider GGATGCACGTGTTTGC, for which the “relative binding free energy” value is 0.08 kcal/mol.
For the sequence ATTGACACGTGCGGAT, the “relative binding free energy” value was found to be 0.15 kcal/mol.
With TTTAGCACGTGGATTC, the “relative binding free energy” value amounted to 0.07 kcal/mol.
GAGGGCACGTGGGAAA: the “relative binding free energy” value was -0.04 kcal/mol.
On to TCGGTCACGTGGGGTG, for which the “relative binding free energy” value was -0.1 kcal/mol.
On to CATGGCACGTGGAGTA, for which the “relative binding free energy” value is -0.22 kcal/mol.
In the case of CTTATCACGTGGTTGG, the “relative binding free energy” value turned out to be 0.09 kcal/mol.
For CATTGCACGTGATGAT, the “relative binding free energy” value came to 0.04 kcal/mol.
Take GACTTCACGTGGTGCT: the “relative binding free energy” value is 0.36 kcal/mol.
Next, TAGTTCACGTGGTAGT: 0.23 kcal/mol.
Under CGCTGCACGTGGGGGC stands -0.19 kcal/mol.
Under TTTGCCACGTGTTTCG stands -0.02 kcal/mol.
For the sequence AAAGTCACGTGTGAAG, the “relative binding free energy” value is 0.26 kcal/mol.
GGGCACACGTGTGGGT: the “relative binding free energy” value is 0.22 kcal/mol.
As for ACTGGCACGTGTCGGG, the “relative binding free energy” value was -0.12 kcal/mol.
Consider GCGGTCACGTGTGAGT, for which the “relative binding free energy” value worked out at 0.16 kcal/mol.
For the sequence CGGGCCACGTGGGCGG, the “relative binding free energy” value is -0.31 kcal/mol.
Next, CATGTCACGTGAGTTG: 0.28 kcal/mol.
GGTGGCACGTGAACAG: the “relative binding free energy” value came out at 0.25 kcal/mol.
For TGTGTCACGTGTTTGA, the “relative binding free energy” value is 0.03 kcal/mol.
Consider GGTGTCACGTGTAATA, for which the “relative binding free energy” value worked out at 0.31 kcal/mol.
Under TCGGTCACGTGAAGTT stands 0.33 kcal/mol; under TAAATCACGTGCGTGT, 0.07 kcal/mol; under CGTTACACGTGTTTTG, 0.01 kcal/mol.
Consider TTTTACACGTGTGGGA, for which the “relative binding free energy” value came to 0.17 kcal/mol.
ATGGTCACGTGGATGT: the “relative binding free energy” value is 0.12 kcal/mol.
Take TGGGTCACGTGTAAAA: the “relative binding free energy” value came to 0.21 kcal/mol.
For ATTTGCACGTGTGCCG, the “relative binding free energy” value turned out to be 0.04 kcal/mol.
On to TGCCTCACGTGTAGGT, for which the “relative binding free energy” value was 0.16 kcal/mol.
With GGGGGCACGTGTTCGA, the “relative binding free energy” value amounted to 0.02 kcal/mol.
For the sequence AGATTCACGTGATATG, the “relative binding free energy” value turned out to be 0.3 kcal/mol.
Next, TATGGCACGTGGCTGG: -0.1 kcal/mol.
Next, TTGGGCACGTGTAGAG: 0.03 kcal/mol; TGTGTCACGTGCGTTT: -0.04 kcal/mol; TCTTTCACGTGTTTCG: 0.33 kcal/mol.
Turning to ATAGGCACGTGTTGCA, the “relative binding free energy” value is -0.1 kcal/mol.
ATGGACACGTGGTTCG: the “relative binding free energy” value was -0.14 kcal/mol.
Consider TGGTACACGTGTGGTA, for which the “relative binding free energy” value is 0.11 kcal/mol.
Take TGCTTCACGTGTGTGA: the “relative binding free energy” value worked out at 0.09 kcal/mol.
Next, TGTGTCACGTGAATCA: 0.21 kcal/mol.
Under GCTCTCACGTGTTGTG stands 0.21 kcal/mol.
Consider TATGGCACGTGTGCAA, for which the “relative binding free energy” value is -0.09 kcal/mol.
In the case of CGAGCCACGTGTGGTG, the “relative binding free energy” value was -0.05 kcal/mol.
For TATAACACGTGGAGGG, the “relative binding free energy” value was -0.15 kcal/mol.
As to TTAGTCACGTGACAAG, the “relative binding free energy” value came out at 0.26 kcal/mol.
Take CGTGGCACGTGTATTT: the “relative binding free energy” value was 0.03 kcal/mol.
As to TAGCGCACGTGTGTTG, the “relative binding free energy” value is -0.08 kcal/mol.
For AAGGCCACGTGATGTG, the “relative binding free energy” value was 0.07 kcal/mol.
With TAGAACACGTGGTTTG, the “relative binding free energy” value is -0.01 kcal/mol.
Under TTATTCACGTGACATG stands 0.16 kcal/mol.
As to CTAGGCACGTGGGGGG, the “relative binding free energy” value was -0.29 kcal/mol.
Turning to TAGGACACGTGTATTG, the “relative binding free energy” value was -0.04 kcal/mol.
Turning to ATGTTCACGTGTGTCG, the “relative binding free energy” value was 0.28 kcal/mol.
With AGCTGCACGTGATTTG, the “relative binding free energy” value was 0.08 kcal/mol.
Next, GTGTACACGTGGGTAC: -0.12 kcal/mol.
Regarding GGGGACACGTGTCAGG, the “relative binding free energy” value is -0.04 kcal/mol.
For AAGGGCACGTGGCAAG, the “relative binding free energy” value was -0.22 kcal/mol.
For the sequence ATTTGCACGTGCGAGG, the “relative binding free energy” value is -0.07 kcal/mol.
Take TCAAGCACGTGTGCGG: the “relative binding free energy” value is -0.04 kcal/mol.
As to TGCGGCACGTGAGGAG, the “relative binding free energy” value amounted to 0.21 kcal/mol.
Under GGAATCACGTGCGTTA stands 0.24 kcal/mol; under AATGACACGTGAAAGG, 0.4 kcal/mol; under AAGTTCACGTGTCAGT, 0.32 kcal/mol.
In the case of GTCGGCACGTGGGCAT, the “relative binding free energy” value was -0.03 kcal/mol.
Next, ATGCTCACGTGTGTTG: 0.04 kcal/mol.
Under TGGGACACGTGTATTT stands 0.03 kcal/mol; under TGTCACACGTGTGCGT, 0.01 kcal/mol.
On to TTCGGCACGTGAATGG, for which the “relative binding free energy” value worked out at 0.16 kcal/mol.
Under TTATACACGTGTGGGT stands -0.03 kcal/mol; under TTGTACACGTGGGTTA, -0.09 kcal/mol; under AGGAGCACGTGGTGAT, -0.14 kcal/mol.
For GTGGACACGTGTTGTA, the “relative binding free energy” value is -0.04 kcal/mol.
Next, AGGTTCACGTGGAATT: 0.38 kcal/mol; AGCGACACGTGAGTGG: 0.18 kcal/mol; ACGGGCACGTGCGTTG: -0.2 kcal/mol.
Consider GGCGACACGTGGATGT, for which the “relative binding free energy” value was determined as 0.17 kcal/mol.
Next, TGAGGCACGTGGATGC: -0.02 kcal/mol.
With GTTTTCACGTGGGGTT, the “relative binding free energy” value amounted to 0.13 kcal/mol.
On to TTCTGCACGTGCTGGG, for which the “relative binding free energy” value amounted to 0.03 kcal/mol.
As for GGGCACACGTGCAGGG, the “relative binding free energy” value was determined as 0.04 kcal/mol.
Next, TGTTGCACGTGTAGCG: 0.14 kcal/mol; CGGTACACGTGTCGGG: 0.11 kcal/mol; AGGCGCACGTGGTGCG: -0.13 kcal/mol.
With GTGGACACGTGGCGTT, the “relative binding free energy” value was 0.01 kcal/mol.
For TTCTTCACGTGTGGGG, the “relative binding free energy” value came out at 0.32 kcal/mol.
GTGGTCACGTGGTATC: the “relative binding free energy” value is -0.02 kcal/mol.
In the case of ATGGGCACGTGAATGA, the “relative binding free energy” value is 0.21 kcal/mol.
For GTTGTCACGTGATAGG, the “relative binding free energy” value came out at 0.25 kcal/mol.
Turning to CGGTGCACGTGAGGTA, the “relative binding free energy” value came to 0.21 kcal/mol.
Turning to AGGTCCACGTGTAGGT, the “relative binding free energy” value is 0.04 kcal/mol.
Consider AGAGGCACGTGTTTTT, for which the “relative binding free energy” value was 0 kcal/mol.
Next, CTTGGCACGTGTTGAG: -0.1 kcal/mol.
Regarding CTCAGCACGTGTTGGT, the “relative binding free energy” value worked out at 0.08 kcal/mol.
As for TCTGTCACGTGGTGAG, the “relative binding free energy” value is -0.1 kcal/mol.
Take AGCAGCACGTGGGGTC: the “relative binding free energy” value is -0.24 kcal/mol.
As to ACAGGCACGTGGTGTG, the “relative binding free energy” value is -0.23 kcal/mol.
As for GGTTTCACGTGCGTCG, the “relative binding free energy” value came out at 0.35 kcal/mol.
